T1: RBFOX1 RRM RbFoxmut (Fox-RRM*) (Homo sapiens, UniProt Q9NWB1 109-208, R118D;E147R;N151S;E152T)
T1 sequence: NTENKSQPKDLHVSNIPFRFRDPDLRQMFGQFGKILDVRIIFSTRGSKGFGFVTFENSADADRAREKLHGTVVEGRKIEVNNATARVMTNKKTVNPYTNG

B1: UAAUGAU (DNA:RNA)
RNA: GGGAGACCGGAAUUCAGAUUGUCCUAAUGAUUUAAAUCCCGUCGUAGCCACCA
DNA 1: CAATCTGAATTCCGGTCTCCC
DNA 2: TGGTGGCTACGACGGGATT
B2: UUGCCUG (DNA:RNA)
RNA: B1 RNA with A26U, A27G, U28C, G29C, A30U, U31G
DNA 1: CAATCTGAATTCCGGTCTCCC
DNA 2: TGGTGGCTACGACGGGATT
B3: AACAAAG (DNA:RNA)
RNA: B1 RNA with U25A, A27C, U28A, G29A, U31G
DNA 1: CAATCTGAATTCCGGTCTCCC
DNA 2: TGGTGGCTACGACGGGATT
B4: GGACCCG (DNA:RNA)
RNA: B1 RNA with U25G, A26G, U28C, G29C, A30C, U31G
DNA 1: CAATCTGAATTCCGGTCTCCC
DNA 2: TGGTGGCTACGACGGGATT
B5: GUGAAUC (DNA:RNA)
RNA: GGGAGACCGGAAUUCAGAUUGUCCGUGAAUCUUAAAUCCCGUCGUAGCCACCA
DNA 1: CAATCTGAATTCCGGTCTCCC
DNA 2: TGGTGGCTACGACGGGATT
B6: GCUUUGU (DNA:RNA)
RNA: B1 RNA with U25G, A26C, A27U, G29U, A30G
DNA 1: CAATCTGAATTCCGGTCTCCC
DNA 2: TGGTGGCTACGACGGGATT
B7: CGUCCGG (DNA:RNA)
RNA: GGGAGACCGGAAUUCAGAUUGUCCCGUCCGGUUAAAUCCCGUCGUAGCCACCA
DNA 1: CAATCTGAATTCCGGTCTCCC
DNA 2: TGGTGGCTACGACGGGATT
B8: UACAACG (DNA:RNA)
RNA: B5 RNA with G25U, U26A, G27C, U30C, C31G
DNA 1: CAATCTGAATTCCGGTCTCCC
DNA 2: TGGTGGCTACGACGGGATT
B9: AACUUGU (DNA:RNA)
RNA: B1 RNA with U25A, A27C, G29U, A30G
DNA 1: CAATCTGAATTCCGGTCTCCC
DNA 2: TGGTGGCTACGACGGGATT
B10: GUCCAAU (DNA:RNA)
RNA: B5 RNA with G27C, A28C, U30A, C31U
DNA 1: CAATCTGAATTCCGGTCTCCC
DNA 2: TGGTGGCTACGACGGGATT
B11: CUACUCU (DNA:RNA)
RNA: B7 RNA with G26U, U27A, C29U, G30C, G31U
DNA 1: CAATCTGAATTCCGGTCTCCC
DNA 2: TGGTGGCTACGACGGGATT
B12: GUGUUUC (DNA:RNA)
RNA: B5 RNA with A28U, A29U
DNA 1: CAATCTGAATTCCGGTCTCCC
DNA 2: TGGTGGCTACGACGGGATT
B13: CAGAUCC (DNA:RNA)
RNA: B5 RNA with G25C, U26A, A29U, U30C
DNA 1: CAATCTGAATTCCGGTCTCCC
DNA 2: TGGTGGCTACGACGGGATT
B14: CCAUUGC (DNA:RNA)
RNA: B7 RNA with G26C, U27A, C28U, C29U, G31C
DNA 1: CAATCTGAATTCCGGTCTCCC
DNA 2: TGGTGGCTACGACGGGATT
B15: UGGGUCC (DNA:RNA)
RNA: B5 RNA with G25U, U26G, A28G, A29U, U30C
DNA 1: CAATCTGAATTCCGGTCTCCC
DNA 2: TGGTGGCTACGACGGGATT
B16: GCCGUCG (DNA:RNA)
RNA: B7 RNA with C25G, G26C, U27C, C28G, C29U, G30C
DNA 1: CAATCTGAATTCCGGTCTCCC
DNA 2: TGGTGGCTACGACGGGATT
B17: UGAUAAC (DNA:RNA)
RNA: B1 RNA with A26G, G29A, U31C
DNA 1: CAATCTGAATTCCGGTCTCCC
DNA 2: TGGTGGCTACGACGGGATT
B18: AGCUAGC (DNA:RNA)
RNA: B7 RNA with C25A, U27C, C28U, C29A, G31C
DNA 1: CAATCTGAATTCCGGTCTCCC
DNA 2: TGGTGGCTACGACGGGATT
B19: UCCACUG (DNA:RNA)
RNA: B7 RNA with C25U, G26C, U27C, C28A, G30U
DNA 1: CAATCTGAATTCCGGTCTCCC
DNA 2: TGGTGGCTACGACGGGATT
B20: CCUGCUA (DNA:RNA)
RNA: B7 RNA with G26C, C28G, G30U, G31A
DNA 1: CAATCTGAATTCCGGTCTCCC
DNA 2: TGGTGGCTACGACGGGATT
B21: CUUGUCG (DNA:RNA)
RNA: B7 RNA with G26U, C28G, C29U, G30C
DNA 1: CAATCTGAATTCCGGTCTCCC
DNA 2: TGGTGGCTACGACGGGATT
B22: GCCUCAC (DNA:RNA)
RNA: B5 RNA with U26C, G27C, A28U, A29C, U30A
DNA 1: CAATCTGAATTCCGGTCTCCC
DNA 2: TGGTGGCTACGACGGGATT
B23: GCUUCAG (DNA:RNA)
RNA: B7 RNA with C25G, G26C, C28U, G30A
DNA 1: CAATCTGAATTCCGGTCTCCC
DNA 2: TGGTGGCTACGACGGGATT
B24: ACUCAUC (DNA:RNA)
RNA: B5 RNA with G25A, U26C, G27U, A28C
DNA 1: CAATCTGAATTCCGGTCTCCC
DNA 2: TGGTGGCTACGACGGGATT
B25: UGAAACG (DNA:RNA)
RNA: B7 RNA with C25U, U27A, C28A, C29A, G30C
DNA 1: CAATCTGAATTCCGGTCTCCC
DNA 2: TGGTGGCTACGACGGGATT
B26: CUACUCA (DNA:RNA)
RNA: B7 RNA with G26U, U27A, C29U, G30C, G31A
DNA 1: CAATCTGAATTCCGGTCTCCC
DNA 2: TGGTGGCTACGACGGGATT
B27: GUACGAA (DNA:RNA)
RNA: B1 RNA with U25G, A26U, U28C, U31A
DNA 1: CAATCTGAATTCCGGTCTCCC
DNA 2: TGGTGGCTACGACGGGATT
B28: AACUUGC (DNA:RNA)
RNA: B1 RNA with U25A, A27C, G29U, A30G, U31C
DNA 1: CAATCTGAATTCCGGTCTCCC
DNA 2: TGGTGGCTACGACGGGATT
B29: CAGACAA (DNA:RNA)
RNA: B7 RNA with G26A, U27G, C28A, G30A, G31A
DNA 1: CAATCTGAATTCCGGTCTCCC
DNA 2: TGGTGGCTACGACGGGATT
B30: AGCACUU (DNA:RNA)
RNA: B7 RNA with C25A, U27C, C28A, G30U, G31U
DNA 1: CAATCTGAATTCCGGTCTCCC
DNA 2: TGGTGGCTACGACGGGATT
B31: ACUACAU (DNA:RNA)
RNA: B7 RNA with C25A, G26C, C28A, G30A, G31U
DNA 1: CAATCTGAATTCCGGTCTCCC
DNA 2: TGGTGGCTACGACGGGATT

Positions count from the first letter of the chain named. The list shows a part of the results.

In this assay the target is T1, RBFOX1 RRM RbFoxmut (Fox-RRM*). In words: EMSA; HiTS-Eq, 1 nM pool, 10 min; buffer printed only for the single-RNA assays: 10 mM Tris pH 7.5, 150 mM NaCl, 3.4 mM EDTA, 0.001% NP-40, 30 C. The following applies: tags: His6 N-terminal (pET28a); label: 5' 32P. The gist of the method: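 These values rest on relative association constants, computed from read-count changes of each RNA species versus the control reaction and normalised to the cognate motif. Reads came from free RNA recovered by 8% native PAGE after purified RbFox RRM (wild type or mutant) at increasing concentrations was equilibrated for 10 min in 50 µL with 1 nM of a 5′-radiolabelled pool with 7 randomized nucleotides and DNA-annealed flanks.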
Background: In EMSA bound probe runs differently from free probe, usually more slowly.
Consider B1, for which the binding signal was 0.0487 KA relative to UGCAUGU.
For B2 the value was 0.377 KA relative to UGCAUGU; for B3, 0.0531 KA relative to UGCAUGU.
For B4 the value was 0.123 KA relative to UGCAUGU; for B5, 0.42 KA relative to UGCAUGU.
For B6 the value was 0.185 KA relative to UGCAUGU; for B7, 0.0535 KA relative to UGCAUGU.
Consider B8, for which the binding signal was 0.0633 KA relative to UGCAUGU.
For B9 the value was 0.121 KA relative to UGCAUGU; for B10, 0.064 KA relative to UGCAUGU.
For B11 the value was 0.0641 KA relative to UGCAUGU; for B12, 0.208 KA relative to UGCAUGU.
For B13 the value was 0.0703 KA relative to UGCAUGU; for B14, 0.12 KA relative to UGCAUGU.
As for B15, the binding signal was 0.149 KA relative to UGCAUGU.
Take B16: the binding signal was 0.0811 KA relative to UGCAUGU.
Then B17, with 0.0615 KA relative to UGCAUGU.
Then B18, with 0.11 KA relative to UGCAUGU; and B19, with 0.101 KA relative to UGCAUGU; and B20, with 0.0988 KA relative to UGCAUGU.
Take B21: the binding signal was 0.13 KA relative to UGCAUGU.
For B22 the value was 0.0785 KA relative to UGCAUGU; for B23, 0.133 KA relative to UGCAUGU.
B24: the binding signal is 0.069 KA relative to UGCAUGU.
Then B25, with 0.0885 KA relative to UGCAUGU; and B26, with 0.139 KA relative to UGCAUGU.
As to B27, the binding signal was 0.121 KA relative to UGCAUGU.
For B28 the value was 0.0864 KA relative to UGCAUGU.
Then B29, with 0.0402 KA relative to UGCAUGU; and B30, with 0.0746 KA relative to UGCAUGU.
For B31 the value was 0.094 KA relative to UGCAUGU.

Source of the values: PMC9911399, “Two distinct binding modes provide the RNA-binding protein RbFox with extraordinary sequence specificity”.
